Experimental data as given in the supplement of paper PMC3334620.
Over roughly 33,000 sequences, “E-score (-0.5 to 0.5)” has its median near -0.01; the highest 2% begin near 0.26. The list shows a part of the results.

Molecular target: Ste12 (UniProt P13574)
Test: PBM E-score (8-mer binding enrichment) (E-score (-0.5 to 0.5)); higher = stronger / more preferred TF binding; most listed sequences are background and not binding sites
Conditions: protein concentration: 200 nM; construct: GST-DNA-binding domain
How it was run: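 E-scores (a modified Wilcoxon-Mann-Whitney statistic) were assigned by the Universal PBM Analysis Suite to every ungapped eight-base word pooled with its reverse complement. The input came from universal all-10-mer Agilent arrays made double-stranded by primer extension and probed with GST-tagged yeast transcription factors at about 100-200 nM. Fluorescent anti-GST detected bound protein, and masliner normalised the scans.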

Sequence	PBM E-score
CCGGTAGG	-0.265
GCTTCTCA	-0.165
ACGCCTGG	-0.0321
GTTTTTTA	0.149
AGCTTCAT	0.146
CGACCCGC	-0.145
CCATATCA	-0.0565
CGGGCAAC	-0.187
GTACCACA	0.0365
CATAATAG	0.0435
CCGAGTCC	-0.0874
AAGATGCA	0.0243
AGACGAAA	0.155
CCAGCGCC	-0.122
AATCCCAT	-0.0733
CGAGATCG	-0.166
GATCCCGC	0.00584
TAATTGAA	0.0688
ATAAATGA	0.189
CGCCTTTC	-0.105
GGATACCC	-0.124
CGCGTCCA	-0.194
GCCGTAAA	-0.0729
CAATCGTG	-0.0456
CCGGGGCG	0.122

Sequence	PBM E-score
CATCCACG	-0.121
GCCATGCA	-0.0325
ATTCTTTA	0.13
CCACAACG	-0.00877
TATCCGGA	0.0347
GGAGAAAA	0.0218
AGATGACA	0.048
TCATCTAA	0.0571
CAGAGCTG	-0.0396
AATCAGAC	0.088
CTGGGAAA	0.0706
AGTCATAA	-0.00815
CACCGTCA	0.0887
AGATTGCG	0.0433
GCGCGCTA	0.0946
GTATCTCA	0.0995
GGTCGAAC	-0.105
GGTAGTAA	-0.123
AAGGTCGA	0.0679
ACGACCGC	-0.162
CAGTGGCC	-0.161
CCCCTTGC	-0.0401
CAAATAGC	-0.0162
CTCCTGTA	-0.0349
CGCAAACA	0.053

Sequence	PBM E-score
CTTATAAA	0.223
TCAGAAGA	-0.121
GTCTAGTA	0.102
ATGGCTGC	-0.0626
ACGGAACG	0.226
ACTAGTTA	0.027
CCTAATAC	-0.103
ACCGGAGT	-0.169
GGCTTTAC	0.0754
GTGTACAA	0.137
AGGAGAAA	-0.0464
CTCTATGA	-0.164
AAATTGCG	0.112
AATAGACA	-0.137
GACCACTA	-0.0701
GAATAACA	0.122
ATCAGTCA	-0.164
ATGAACTC	-0.105
CTCTTAGC	0.0397
CAGTGCCA	-0.238
AGGTTTGG	0.0481
ACAAGTCC	-0.232
ATCTAGAT	-0.232
GATTAAGA	0.114
AATACCAA	0.0182

Sequence	PBM E-score
GGATCAGA	-0.0442
AACTAATC	0.094
CTATGTAC	-0.159
GAGACGGC	-0.0738
CGGCACCA	0.09
GAAGCTTA	-0.072
AACTGACA	0.132
ATTACCAC	0.0728
AGGAAAAT	0.177
AATATATC	0.0719
GAACGGTC	-0.0586
TCTTTTCA	0.106
ACGCTCCC	0.0475
AAGCCATA	-0.124
AATGCCTG	-0.0458
AGCGGTCC	-0.0901
TACGTGAA	0.0978
CTAAGGGA	-0.0343
CTACTCAG	-0.125
GCGGCCTA	-0.0793
AAAATTAA	0.134
CTTTCACA	0.0992
AACAAGAG	0.108
CATGCCAC	-0.0903
GCCCTTAA	-0.00306

Sequence	PBM E-score
GAAGGGTC	-0.287
GGGAGCCA	-0.0911
AGATAGTA	-0.0431
AGCGGCGC	-0.133
CGACATCA	-0.0385
AAAGCCGG	0.122
AGACATAT	0.0461
CACTCGTC	-0.00321
GAACTACA	-0.146
GTGATCCA	-0.167
TATCGACA	0.051
ACAAGTCT	0.0297
CCCGACGG	-0.134
ATAAGTTC	0.0815
TATCGCCA	-0.111
CATCACAA	0.0823
CGGAGTTC	0.0765
AATTGTGA	0.0664
AGTCCCAA	0.0686
ATGAAACC	0.457
CGAGGTTC	-0.0308
AGGTTACC	0.0494
CGATTCCA	0.0118
AACATTCC	-0.0933
AACCTTTG	-0.155

Sequence	PBM E-score
GGCCGCCC	-0.0363
GGTTAACC	-0.184
AAGCGTCA	0.00059
CATCAAGC	0.0386
AGTCCAGC	-0.197
ATTCGGCA	0.00941
AATCCTAC	-0.13
ATTTCTAA	-0.0268
CCCAGAAC	-0.0133
AGCGCGAC	0.0868
ATTGGGTC	-0.00984
CTAGCTAA	0.0112
ACCGCTCG	0.0567
GTTGAGTA	0.078
CCATAACA	0.119
AGTCTTAA	-0.137
GCCGCTAC	0.113
AGTATGTG	0.0209
CACGTAAC	0.0303
CAGCACGA	-0.209
GAACGGCA	-0.0309
ACCATCAT	0.014
GTTAAATA	0.154
GGGATTTA	0.0903
ATGAGCTA	-0.0791

Sequence	PBM E-score
AAGCTGTG	-0.133
CGGCCCCC	-0.025
CTTTAGGA	0.0179
TGTTGAAA	0.311
CTAACCCA	-0.0411
TAAGTCTA	-0.179
GCACTGAA	0.113
ATCAGCTC	-0.089
ATGTAGTA	0.0487
TCCACCCA	-0.0525
GAGAGTCA	-0.035
ACGGGATC	0.0152
TGTGAGAA	0.145
AGAGGTAT	0.145
ATCCTTTA	0.105
ATTTATGA	0.189
ATGATCGG	0.112
ACGGTTAA	0.0419
GTGTATGA	0.085
CACAAGTG	-0.149
AATCTGCA	0.0137
CACGCGAA	-0.134
TAGGCTAA	-0.145
GTAGTGAA	-0.0841
CGCTCCGC	-0.0396

Sequence	PBM E-score
CCAGCACA	-0.105
ATTTCTAG	0.171
ACCCAGGA	-0.0909
CCCACATA	-0.0164
CAGTTCAA	0.0788
AACCAAAA	0.324
GAACAAAA	0.258
TCTTTGAA	0.161
CACTATCA	0.0757
CGAGTCAC	-0.0334
CCGCGAGA	-0.0731
GCGGGTTA	0.0599
GAGCGCAA	-0.233
TCGTATCA	0.137
ACAGGCGC	-0.169
AGCAGAAG	0.0292
GAAGGATA	-0.14
GACGTAAC	0.0892
GTGTAGGA	0.0365
AGATTGAC	0.108
AAATTATC	0.222
CGTTTGAC	-0.0236
CCCGTATA	0.0478
ATGTCTCA	0.289
ATATATAA	0.273

Sequence	PBM E-score
AAATTGAC	0.211
CCTTTTAG	-0.205
ACGCTATA	-0.0754
ATATTTTG	0.148
ACTGTGTA	0.0508
AGTTACTC	-0.00049
AAGCTCTC	-0.0877
AGTGGGGA	0.00622
TTCCCGAA	0.258
TCCTACGA	-0.148
ACCCCAAC	0.0179
ACGCAGTG	-0.221
ACGTGGAT	-0.0738
CATCAGTC	-0.241
ACCTAGGC	-0.071
CCGAATAG	-0.0705
CATAGGGA	-0.137
CCCCCTCA	-0.237
GCTGTGTA	-0.0397
